Paper PMC7405385
These are yes or no findings as the source states them, for the method shown. In cells and extracts the contact can be indirect. Some entries that bind do so weakly or less than the wild type. For some of these results: Where a sequence is shown, tags or fusion partners need not be part of it. Each block holds one substance with its values, some of them ahead of it.

Amino acid sequences for entries named in this document (tags omitted). A change or cut given only in a name is not applied to a line headed by its entry. Residues count along the entry.
UniProt Q00978: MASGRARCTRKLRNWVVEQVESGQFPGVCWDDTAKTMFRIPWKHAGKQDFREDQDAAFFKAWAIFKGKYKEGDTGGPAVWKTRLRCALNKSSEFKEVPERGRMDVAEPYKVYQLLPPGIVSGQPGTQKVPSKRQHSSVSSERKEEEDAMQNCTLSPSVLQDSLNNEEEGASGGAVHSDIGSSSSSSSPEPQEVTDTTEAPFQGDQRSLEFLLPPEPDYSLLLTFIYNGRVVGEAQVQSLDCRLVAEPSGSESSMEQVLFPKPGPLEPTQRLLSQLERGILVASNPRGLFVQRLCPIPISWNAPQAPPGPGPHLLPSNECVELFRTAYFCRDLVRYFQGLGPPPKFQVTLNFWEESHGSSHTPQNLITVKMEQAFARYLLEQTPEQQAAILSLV
UniProt P52630: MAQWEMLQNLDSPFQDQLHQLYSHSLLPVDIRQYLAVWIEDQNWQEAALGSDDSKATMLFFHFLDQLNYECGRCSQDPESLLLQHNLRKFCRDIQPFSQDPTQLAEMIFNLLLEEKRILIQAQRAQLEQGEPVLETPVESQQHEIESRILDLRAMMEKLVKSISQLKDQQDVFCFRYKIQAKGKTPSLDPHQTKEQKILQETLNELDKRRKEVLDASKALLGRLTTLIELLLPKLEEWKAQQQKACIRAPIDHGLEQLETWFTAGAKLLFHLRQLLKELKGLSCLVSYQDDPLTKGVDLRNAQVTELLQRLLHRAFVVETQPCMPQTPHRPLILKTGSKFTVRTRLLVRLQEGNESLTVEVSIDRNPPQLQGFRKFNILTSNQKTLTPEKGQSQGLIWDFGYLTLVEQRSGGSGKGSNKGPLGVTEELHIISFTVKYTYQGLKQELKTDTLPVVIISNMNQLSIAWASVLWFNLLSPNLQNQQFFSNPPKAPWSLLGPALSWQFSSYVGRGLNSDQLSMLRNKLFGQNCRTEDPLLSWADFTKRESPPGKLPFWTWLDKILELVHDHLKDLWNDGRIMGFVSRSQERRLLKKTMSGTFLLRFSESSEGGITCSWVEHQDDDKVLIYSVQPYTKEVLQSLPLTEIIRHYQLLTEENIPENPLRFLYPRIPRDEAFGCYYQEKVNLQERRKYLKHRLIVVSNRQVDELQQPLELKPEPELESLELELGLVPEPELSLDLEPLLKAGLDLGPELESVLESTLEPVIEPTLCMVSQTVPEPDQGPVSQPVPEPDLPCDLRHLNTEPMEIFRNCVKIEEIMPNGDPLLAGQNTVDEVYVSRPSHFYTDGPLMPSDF
UniProt P17181, residues 28-557: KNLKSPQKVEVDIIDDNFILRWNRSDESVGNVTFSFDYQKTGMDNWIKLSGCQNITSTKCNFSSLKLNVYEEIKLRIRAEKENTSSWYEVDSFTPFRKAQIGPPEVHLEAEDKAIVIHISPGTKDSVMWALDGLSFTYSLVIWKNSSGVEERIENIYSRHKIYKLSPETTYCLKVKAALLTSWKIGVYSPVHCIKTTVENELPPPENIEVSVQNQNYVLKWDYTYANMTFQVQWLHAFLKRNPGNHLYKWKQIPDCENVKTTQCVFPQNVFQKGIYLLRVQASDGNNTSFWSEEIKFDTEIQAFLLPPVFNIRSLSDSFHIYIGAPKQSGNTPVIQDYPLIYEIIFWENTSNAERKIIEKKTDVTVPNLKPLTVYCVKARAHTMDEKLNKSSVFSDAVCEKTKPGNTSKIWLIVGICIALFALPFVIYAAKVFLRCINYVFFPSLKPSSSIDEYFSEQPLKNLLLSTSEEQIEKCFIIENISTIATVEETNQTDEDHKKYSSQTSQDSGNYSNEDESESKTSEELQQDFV

Experiments:
[1] = biological target: IRF9 in U6A cells (human (endogenous in U6A)) (UniProt Q00978); assay: co-IP; immunoprecipitation of Flag-STAT2 or IRF9 from whole-cell lysates of U6A cells; IFN-β (100 IU/mL) for 4 h by the legend
[2] = biological target: T1, GST-fusion protein of the kinase domain of IKK-ε (UniProt Q14164); assay: pull-down; GST-fusion proteins of IKK-ε truncations with STAT2 (Fig. S3c); STAT2 DBD with IKK-ε (Fig. S3d); called direct
T1 sequence: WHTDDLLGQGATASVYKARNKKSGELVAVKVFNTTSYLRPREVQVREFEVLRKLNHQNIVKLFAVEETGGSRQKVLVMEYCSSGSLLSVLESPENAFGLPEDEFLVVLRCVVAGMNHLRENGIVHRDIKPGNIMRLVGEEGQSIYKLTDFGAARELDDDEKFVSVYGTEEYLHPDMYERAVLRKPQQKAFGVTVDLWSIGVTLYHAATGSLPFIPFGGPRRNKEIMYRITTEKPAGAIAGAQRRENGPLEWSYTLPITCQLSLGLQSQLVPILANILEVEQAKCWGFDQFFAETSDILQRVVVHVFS

[3] = biological target: GFP-tagged STAT2 wild type expressed in U6A cells (human) (UniProt P52630); assay: pull-down; GFP pull-down from whole-cell lysates of U6A cells treated with IFN-β (100 IU/mL) for 0, 5 or 15 min, western blot
[4] = biological target: GFP-tagged STAT2 T404E expressed in U6A cells (human) (UniProt P52630); assay: as above
[5] = biological target: GFP-tagged STAT2 T404A expressed in U6A cells (human) (UniProt P52630); assay: as above

binding [1]: no binding
Substance: Flag-STAT2 F175A expressed in U6A cells (from UniProt P52630 1-851)

binding [1]: binds
Substance: Flag-STAT2 T404A expressed in U6A cells (from UniProt P52630 1-851)

binding [1]: binds
Substance: Flag-STAT2 T404E expressed in U6A cells (from UniProt P52630 1-851)

binding [2]: binds
Substance: STAT2 as used in the GST pull-down assays (Fig. S1b, c and Fig. S3c) (from UniProt P52630 1-851)

binding [3]: binds
binding [4]: binds
binding [5]: binds
Substance: phosphorylated IFNAR1 in IFN-β-treated U6A cells (from UniProt P17181 28-557) (receptor)
